Experimental data published in PubChem BioAssay AID686979 (National Center for Advancing Translational Sciences (NCATS), 2013).
The campaign covered roughly 420,000 compounds. About 50,000 (12%) were called active. Inconclusive means that the source gave no clear call. Such entries were picked first, then a sample of the others. Calls follow the shape of the dose curve; as a rule, active = well fitted inhibition curve with a large enough effect; inconclusive = small, poorly fitted or top-dose-only effect; inactive = flat fitted curve, though single readings scatter. No potency is given beside an inconclusive call; the fits are too rough.

Assay: qHTS for Inhibitors of human tyrosyl-DNA phosphodiesterase 1 (TDP1): qHTS in cells in presence of CPT; also: nearly all actives have a fitted effect of over 55% in size
Conditions: chicken DT40 Tdp1-/-;hTDP1 cells + 20 nM CPT, ATP luminescence, 48 h; activity change, negative = growth inhibition: at 46.2 µM (top of the series) unless noted
In short: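 Cell growth measured by CellTiter-Glo luminescence after a minimum 48 h, 37 C compound exposure with 20 nM CPT in Tdp1-knockout DT40 cells stably expressing hTDP1, seeded 400/well; qHTS titration format.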
% is scaled to controls: 0 for no effect and ±100 for the full control effect; potency is read from the fitted curve at half-maximal effect; tags tell the direction and shape of the fitted curve.

SMILES | Potency | activity change, negative = growth inhibition
O=C(CCS(=O)(=O)c1nc(-c2cccs2)cc(C(F)(F)F)n1)Nc1cccc(O)c1 | active: 2.31 µM | 
O=C(CCCCCn1c(=O)[nH]c2ccsc2c1=O)N1CCCCC1 |  | inactive: -15.1%
O=C(c1ccc([N+](=O)[O-])cc1)N(Cc1ccc(Cl)cc1Cl)N1C(=O)CCCC1=O |  | inactive: -11.8%
CCc1cccc(C)c1N(C(=O)Cn1c(=O)[nH]c2ccccc21)C(C)COC (stereo unspecified) | inconclusive [inhibitor, single point] | 
COc1cccc(-c2nc3sc4c(c3c(=O)[nH]2)CCCCC4)c1 | inconclusive [inhibitor, single point] | 
Cc1ccc(NC(=S)NC2CCCC2)c(C)c1 | inconclusive [inhibitor, single point] | 
CCOC(=O)C1C(=O)CC(C)(O)C(C(=O)OCC)C1c1ccc(NC(C)=O)cc1 (stereo unspecified) |  | inactive: -2.6%
CC(C)Cn1c(CN(Cc2ccccc2)Cc2ccccc2)nc2c1c(=O)n(C)c(=O)n2C | inconclusive [inhibitor, single point] | 
COc1ccc(N2C(=O)c3ccccc3NC(=O)C2C(=O)NCCc2ccccc2F)cc1 (stereo unspecified) | inconclusive [inhibitor, single point] | 
CCCNC(=O)C1(C)CCN(Cc2ccc(OCc3ccccc3)cc2)C1 (stereo unspecified) | active: 23.1 µM | 
COc1ccc(C2CC(c3ccccc3)=NN2C(=S)Nc2ccccc2)cc1 (stereo unspecified) | inconclusive [inhibitor, single point] | 
O=C(NCCCN1CCN(c2cccc(Cl)c2)CC1)c1nnc(Cc2ccc(F)cc2Cl)o1 | inconclusive [inhibitor, single point] | 
Cc1ccc(N2C(=O)C(CC(=O)Nc3ccccc3)N(CCC3=CCCCC3)C2=O)cc1 (stereo unspecified) | active: 16.4 µM | 
Cc1ccsc1/C=N/NC(=O)C1C(=O)NCC1c1ccccc1 (stereo unspecified) |  | inactive: 13.1%
C#CCOc1ccccc1CNC1CCN(Cc2ccccc2)CC1 | inconclusive [inhibitor, single point] | 
CC(C)NC(=O)c1sc2ncccc2c1-n1cccc1 | inconclusive [inhibitor, partial curve] | 
COc1ccccc1/C=C/C(=O)NCc1ccccn1 |  | inactive: 8.42%
COc1ccc(CNC(=O)COC(=O)c2cccn2C)cc1 |  | inactive: 15.9%
COCCn1c(=O)c(-c2cccc(C#N)c2)nc2cnc(OCc3ccccc3)nc21 |  | inactive: -10.5%
CCCc1cc(=O)oc2cc(C)c3c(-c4ccccc4)c(C)oc3c12 | inconclusive [inhibitor, single point] | 
COc1ccc(OC)c(CNn2c(-c3cccc(C)c3)nc3ccccc3c2=O)c1 | inconclusive [inhibitor, single point] | 
CN(CC12CC3CC(CC(C3)C1)C2)C(=O)c1ccco1 | inconclusive [inhibitor, single point] | 
CCOc1ccc(NC(=O)CSc2nc3ccccc3nc2N2CC(C)OC(C)C2)cc1 (stereo unspecified) | active: 23.1 µM | 
CCOC(=O)c1c(S(=O)(=O)N2CCCC(C)C2)c(C)n(C)c1C (stereo unspecified) | inconclusive [inhibitor, partial curve] | 

SMILES | Potency | activity change, negative = growth inhibition
Cn1c2ccc(F)cc2c2nnc(SCCN3CCCCC3)nc21 | inconclusive [inhibitor, single point] | 
Cc1ccc(-c2noc(CCC(=O)NCc3ccccc3CN3CCOCC3)n2)cc1 | inconclusive [inhibitor, single point] | 
CCOc1ccccc1N(CC)C(=O)c1cc2ccc3cccnc3c2[nH]1 | active: 5.8 µM | 
O=C(c1cccc(-c2ccco2)c1)N1CCCC(N2CCN(c3ccc(F)cc3)CC2)C1 (stereo unspecified) | inconclusive [inhibitor, single point] | 
CC(=O)Nc1cccc(-c2csc(Nc3ccc(C)cn3)n2)c1 |  | inactive: -28.5%
Cc1cc(C)cc(NC(=O)C2CC23CCN(Cc2ccc4ncccc4c2)CC3)c1 (stereo unspecified) | inconclusive [inhibitor, single point] | 
CCOc1ccccc1N(CC(=O)NC1CCCCC1)C(=O)c1nsc(Cl)c1Cl |  | inactive: -23.6%
O=C(NCc1ccc(F)cc1)c1cnc(Cl)c(Cl)c1 | inconclusive [inhibitor, single point] | 
Cc1ccnc(NC2c3ccccc3C(=O)N2Cc2ccccc2Cl)c1 (stereo unspecified) | inconclusive [inhibitor, single point] | 
O=C(NCc1nc2ccccc2[nH]1)C1=C[C@H](c2csc3ccccc23)C[C@H](OCc2ccc(CO)cc2)O1 | inconclusive [inhibitor, single point] | 
COc1ccccc1NC(=O)c1ccc(NC(=O)c2ccco2)cc1 |  | inconclusive: -31.1% [inhibitor]
CCS(=O)(=O)c1ccc(N=Nc2ccc(O)c3ncccc23)c(OC)c1 | active: 1.84 µM | 
Cc1[nH]nc(-c2ccc(O)cc2O)c1Oc1ccccc1 | inconclusive [inhibitor, single point] | 
CCOc1ccc(CCNC(=O)c2sc3nc4n(c(=O)c3c2C)CCCC4)cc1 | inconclusive [inhibitor, single point] | 
CC1=NN(c2nc(-c3ccc(C)cc3)cs2)C(=O)C1N=Nc1cccc(C)c1 (stereo unspecified) | inconclusive [inhibitor, single point] | 
COc1ccc(Cc2c(-c3cccc(Cl)c3)nc3c(C)cc(Br)cn23)c(C)c1 | active: 2.59 µM | 
CCOC(=O)C1=C[C@@H](C(C)(C)C)N(S(=O)(=O)c2ccc(C)cc2)[C@H]1c1ccccc1Cl | inconclusive [inhibitor, single point] | 
CC(/C=C1\SC(=S)N(CCCC(=O)Nc2ccc(C(=O)O)cc2)C1=O)=C\c1ccccc1 | inconclusive [inhibitor, single point] | 
COc1cc(Cl)c(C)cc1NC(=O)COC(=O)C1CC1C (stereo unspecified) |  | inactive: 0.0301%
CC(=O)Nc1ccc(NC(=O)c2ccccc2N(C)S(=O)(=O)c2ccccc2)cc1 |  | inactive: 10.7%
NNC(=O)c1cc(C23CC4CC(CC(C4)C2)C3)[nH]n1 |  | inactive: -24.4%
O=C(N/C(=C/c1ccc(Br)cc1)C(=O)N1CCCCC1)c1ccccc1F | inconclusive [inhibitor, single point] | 
CCOc1ccc(S(=O)(=O)NC2CCCCC2C)cc1 (stereo unspecified) | inconclusive [inhibitor, single point] | 
Cc1cc(C)c(OCC(O)CN2CCN(c3ccccn3)CC2)c(C)c1 (stereo unspecified) |  | inactive: -11.1%

SMILES | Potency | activity change, negative = growth inhibition
CCOC(=O)c1cccc(NC(=O)Nc2cc(OC)ccc2OC)c1 | inconclusive [inhibitor, single point] | 
C=C1c2cccc(OC)c2O[C@H](C(=O)OCC)[C@@H]1CC(CC)CCCC (stereo partly specified) | inconclusive [inhibitor, single point] | 
c1ccc(CNc2nc(Oc3ccncc3)c3sccc3n2)cc1 |  | inactive: -23.1%
COc1ccc2ccc(O)c(CN3CCN(S(=O)(=O)c4cccc(C(F)(F)F)c4)CC3)c2c1 | inconclusive [inhibitor, single point] | 
COc1ccc2cc(CN(Cc3ccco3)C(c3nnnn3C3CCCCC3)C(C)C)c(=O)[nH]c2c1 (stereo unspecified) | active: 23.1 µM | 
CCc1cccc(CC)c1NC(=O)CSc1nc2ccc(N3C(=O)C4C5C=CC(C5)C4C3=O)cc2s1 (stereo unspecified) | active: 20.6 µM | 
COc1ccccc1C1CCN(Cc2ccccc2Cl)CC1 | inconclusive [inhibitor, single point] | 
O=C(COc1ccccc1)Nc1ccccc1N1CCN(c2ccccc2)CC1 | inconclusive [inhibitor, single point] | 
O=C(c1ccc([N+](=O)[O-])o1)N1CCN(c2nc3c(Cl)cccc3s2)CC1 | active: 20.6 µM | 
CCc1nc2ccc(C(=O)NCCNC(C)=O)cn2c1N(CCC(C)C)CCN(C)C |  | inactive: -7.33%
COc1ccc(NC(=O)c2nc(S(=O)(=O)Cc3ccc(C)cc3)ncc2Cl)cc1 | active: 16.4 µM | 
C[C@]12CCC(=O)C=C1[C@H](O)C[C@@H]1[C@@H]2[C@@H](O)C[C@@]2(C)[C@H]1CC[C@]2(O)C(=O)CO |  | inactive: -14.9%
O=C(Nc1cccc(S(=O)(=O)C(F)F)c1)c1ccc(S(=O)(=O)N2CCOCC2)cc1 |  | inactive: -14.7%
CC1CCC(NC(=O)CCc2cn(Cc3ccc(F)cc3)c3ccccc23)CC1 (stereo unspecified) | inconclusive [inhibitor, partial curve, poor fit] | 
CN(CCC#N)C(=O)COC(=O)c1nn(-c2ccccc2)c(=O)c2ccccc12 |  | inactive: -0.611%
Cc1[nH]c(SCC(=O)Nc2cc(S(C)(=O)=O)ccc2Cl)nc1Cc1ccccc1 | inconclusive [inhibitor, partial curve] | 
Cc1onc(-c2c(F)cccc2Cl)c1C(=O)Nc1sc2c(c1C(N)=O)CCC2 | active: 11.2 µM | 
Cc1ccc(NC(=O)C2CCN(c3nc(C)cc(C)n3)CC2)cc1 | inconclusive [inhibitor, single point] | 
COc1ccc(OC)c(/C=C/C(=O)OCC(=O)Nc2cccc(Oc3ccccc3)c2)c1 | inconclusive [inhibitor, single point] | 
Oc1ccc(-c2n[nH]c(C(F)(F)F)c2-c2ccccc2)c(O)c1 | active: 1.84 µM | 
COc1ccc(C(C)=O)cc1COC(=O)c1cc(C)nc2ccccc12 | inconclusive [inhibitor, single point] | 
CC(Oc1ccc(Cl)cc1)C(=O)Nc1sccc1C(N)=O (stereo unspecified) | inconclusive [inhibitor, single point] | 
Cc1cc2c(c(-c3ccc4nc(C)ccc4c3)c1)OC(CNC(=O)Cc1ccn(C)c1)C2 (stereo unspecified) | inconclusive [inhibitor, single point] | 
